Data reported in PubChem BioAssay AID1865 (National Center for Advancing Translational Sciences (NCATS), 2009).
Out of some 280,000 compounds screened, about 540 (0.19%) were called active. The shares of active, inactive and inconclusive entries below differ from those in the screen. The call rests on the fitted dose curve; in most records, active means well fitted activation curve with a large enough effect; inconclusive means small, poorly fitted or top-dose-only effect; inactive means flat fitted curve, though single readings scatter. Potencies beside an inconclusive call are fits to weak or partial responses and may not hold up.

Assay: Quantitative High-Throughput Screen for Regulators of Epigenetic Control; further: nearly all actives have a fitted effect of over 60% in size; on GFP activation: % of control where 0% means no effect
Settings: murine LDR cells, GFP reporter derepression, 30 h; GFP activation: at 53.9 µM (top of the series)
Summary of the method: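 GFP-positive cell count by laser-scanning cytometry (objects 20–120 um) after 30 h, 37 C compound exposure of murine LDR cells; reporter is CMV-GFP integrated at a silenced locus, inducible by HDAC or DNMT inhibitors.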
Potency means the concentration at half of the fitted maximal effect; tags describe the fitted curve by direction and shape.

| Structure (SMILES) | Potency | GFP activation |
| --- | --- | --- |
| Cc1c(=O)n(OCc2ccccc2F)c2ccccc2[n+]1[O-] | inconclusive: 25.1 µM [activator, single point] |  |
| Nc1c(C(=O)c2ccc(Cl)cc2)sc2nc3c(cc12)CCC3 | inconclusive: 31.6 µM [activator, single point] |  |
| CC(=O)/C(=N/Nc1cccc(C)c1)N1CCOCC1 | inconclusive: 14.1 µM [activator, single point] |  |
| COc1ccc(C(NC(C)=O)c2ccc3cccnc3c2O)c(OC)c1 (stereo not given) | inconclusive: 35.5 µM [activator, single point] |  |
| CCCCCCc1cc2cc(-c3nnc(-c4cccc(Cl)c4)o3)c(=O)oc2cc1O | inconclusive: 2.82 µM [activator, partial curve] |  |
| O=C(Cn1nnc(-c2ccccc2NC(=O)c2cccs2)n1)Nc1ccccc1 | inconclusive: 12.6 µM [activator, single point] |  |
| CCCCCc1ccc(OCCCC[n+]2cccc(C)c2)c(CCCCC)c1 |  | inactive: -0.0253% |
| Cc1cccc(NC(=S)NCC23C=CC(O2)C2C(=O)N(c4ccc(Cl)cc4)C(=O)C23)c1 (stereo not given) | inconclusive: 35.5 µM [activator, single point] |  |
| Cc1ccc(C(=O)NC(=S)Nc2ccc(S(=O)(=O)N3CCN(C)CC3)cc2)cc1 |  | inactive: -2.33% |
| O=C(Oc1c(Cl)cc(Cl)c2cccnc12)c1cccc([N+](=O)[O-])c1 | inconclusive: 31.6 µM [activator, single point] |  |
| CC(=O)n1cc([C@@H]2C=C(C(=O)N3CCN(Cc4ccc5c(c4)OCO5)CC3)O[C@H](OCc3ccc(CO)cc3)C2)c2ccccc21 | inconclusive: 35.5 µM [activator, single point] |  |
| C/C(=N\Nc1ccc(S(N)(=O)=O)cc1[N+](=O)[O-])c1ccc2c(c1)OCO2 | inconclusive: 25.1 µM [activator, single point] |  |
| CC(=O)Nc1ccc(-c2cc(-c3ccc(NC(C)=O)cc3)nc(-c3ccccc3)n2)cc1 | inconclusive: 11.2 µM [activator, partial curve] |  |
| CNc1ccc(Br)cc(C(=O)/C=C/c2cccc(Cl)c2Cl)c1=O | inconclusive: 25.1 µM [activator, single point] |  |
| O=C(NC(=S)N1CCN(c2ccc(Cl)cc2[N+](=O)[O-])CC1)c1ccco1 | inconclusive: 35.5 µM [activator, single point] |  |
| O=C(C1=C[C@@H](c2csc3ccccc23)C[C@@H](OCc2ccc(CO)cc2)O1)N1CCN(Cc2ccc3c(c2)OCO3)CC1 |  | inactive: 5.15% |
| O=C(NC(=S)Nc1cccc2ncccc12)c1ccco1 | inconclusive: 5.62 µM [activator, single point] |  |
| CCNS(=O)(=O)c1ccc(CCC(=O)Nc2ccc(C(=O)OC)cc2)cc1 | inconclusive: 0.126 µM [activator, full curve, poor fit] |  |
| CCc1c(C(=O)N/N=C/c2ccsc2)csc1C | inconclusive: 12.6 µM [activator, single point] |  |
| COc1ccc(Cl)c2sc(NC(=O)c3ccc(S(=O)(=O)N4CCCC4)cc3)nc12 | inconclusive: 28.2 µM [activator, single point] |  |

| Structure (SMILES) | Potency | GFP activation |
| --- | --- | --- |
| CCOC(=O)c1c(NC(=O)c2ccc(S(=O)(=O)N3CCCC(C)C3)cc2)sc2c1CC(C)(C)NC2(C)C (stereo not given) | inconclusive: 15.8 µM [activator, single point] |  |
| Cc1nc2c(=O)n(C)c(=O)n(C)c2nc1Cl | inconclusive: 5.62 µM [activator, single point] |  |
| CCOc1cc(/C=N/NC(=O)c2cccnc2)ccc1OCc1ccc(C(=O)OC)o1 | inconclusive: 0.1 µM [activator, full curve, poor fit] |  |
| CCCSc1nc2sc3c(c2c(=O)[nH]1)CC(C)CC3 (stereo not given) | inconclusive: 6.31 µM [activator, partial curve, poor fit] |  |
| COc1cc(OC)cc(C(=O)Nc2ccc3c(c2)CCCN3C(=O)c2cccs2)c1 | inconclusive: 10 µM [activator, partial curve, poor fit] |  |
| CCCCN(C)S(=O)(=O)c1ccc(C(=O)Nc2sc3c(c2C(=O)OCC)CCN(C(C)C)C3)cc1 | inconclusive: 20 µM [activator, partial curve] |  |
| CCCCC(CC)Cn1c(N)c(C#N)c2nc3ccccc3nc21 (stereo not given) | inconclusive: 35.5 µM [activator, single point] |  |
| CCOCCc1nn2c(=O)cc(COC(=O)c3ccc(NC(=O)c4cccs4)cc3)nc2s1 | inconclusive: 8.91 µM [activator, partial curve, poor fit] |  |
| CC(=O)c1ccc(N2Cc3ccccc3/C2=N\C(=O)Nc2ccc(Cl)cc2)cc1 | inconclusive: 35.5 µM [activator, single point] |  |
| O=C(Nc1ccc2oc(-c3cccnc3)nc2c1)c1ccccc1F | inconclusive: 35.5 µM [activator, single point] |  |
| CN(C)c1cccc(C(=O)OCc2cc(=O)oc3cc(O)ccc23)c1 | inconclusive: 22.4 µM [activator, single point] |  |
| O=C(Cc1ccccc1)N1CCNCC1 |  | inactive: -1.18% |
| CC1(C)Cc2nc3sc4c(=O)n(Cc5ccccc5)cnc4c3cc2CS1 | inconclusive: 12.6 µM [activator, single point] |  |
| CC(C)OC(=O)CCC(=O)Nc1nc2ccccc2s1 | inconclusive: 31.6 µM [activator, single point] |  |
| O=C(CSc1nnc2scc(-c3ccc(Cl)cc3)n12)Nc1ccccc1F |  | inactive: -0.808% |
| CN1CCN(C(=O)CCN2C(=O)/C(=C/c3ccccc3Cl)SC2=S)CC1 | inconclusive: 25.1 µM [activator, single point] |  |
| Cn1c(=O)c2c(nc(NCCO)n2C)n(C)c1=O |  | inactive: 0% |
| O=C(Cn1ccc2ccccc2c1=O)N1CCN(Cc2ccc3c(c2)OCO3)CC1 |  | inactive: -1.03% |
| CCCCC(=O)N/N=C/c1ccc(Sc2cccc3cccnc23)o1 | inconclusive: 25.1 µM [activator, single point] |  |
| O=C(N/N=C/c1ccccn1)c1cc([N+](=O)[O-])cc([N+](=O)[O-])c1 | inconclusive: 17.8 µM [activator, single point] |  |
